# Measurements as given in PubChem BioAssay AID485281 (National Center for Advancing Translational Sciences (NCATS), 2010).
# Among all 350,000 compounds or so, about 260 (0.074%) were called active. The shares of active, inactive and inconclusive entries below differ from those in the screen. The call rests on the fitted dose curve; in most records, active means well fitted inhibition curve with a large enough effect; inconclusive means small, poorly fitted or top-dose-only effect; inactive means no such curve, though single readings can be large or run the other way. A potency beside an inconclusive call is a rough fit, not a confirmed value.
# Target: Ferritin light chain (Equus caballus) (UniProt P02791)
# UniProt P02791, sequence (P02791 whole entry, looked up): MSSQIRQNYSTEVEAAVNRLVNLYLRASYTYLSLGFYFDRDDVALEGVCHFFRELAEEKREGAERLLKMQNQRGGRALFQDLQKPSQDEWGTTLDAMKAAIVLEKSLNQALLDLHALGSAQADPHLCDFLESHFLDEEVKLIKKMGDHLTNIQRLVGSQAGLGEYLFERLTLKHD
# Test: qHTS Assay for Identification of Novel General Anesthetics; further: nearly all actives have a fitted effect of over 20% in size
# Details: apoferritin/1-aminoanthracene competitive binding, fluorescence; activity change, negative = displacement: at 77.5 µM (top of the series)
# Procedure, shortened: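 In PBS, apoferritin at 10 uM is loaded with 1-AMA from a 50% saturated solution. After 10 min of compound exposure at ambient temperature, reduced 535 nm fluorescence indicates probe displacement.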
# On the % scale 0 is the no-effect control and ±100 the full control effect; potency means the concentration at half of the fitted maximal effect; tags describe the fitted curve by direction and shape.
SMILES,Potency,"activity change, negative = displacement"
Cc1ccc(Cl)cc1N1CCN(Cc2nc3ccsc3c(=O)[nH]2)CC1,"inconclusive: 17.8 µM [inhibitor, partial curve]",–
CCOc1ncccc1C(=O)OCC(=O)c1ccccc1Br,"inconclusive: 31.6 µM [inhibitor, partial curve]",–
COc1ccc(N(C(=O)C(C)C)S(=O)(=O)c2cccc([N+](=O)[O-])c2)cc1,"inconclusive: 39.8 µM [inhibitor, single point]",–
COCC(=O)Nc1nnc(CCc2ccccc2)s1,"inconclusive: 35.5 µM [inhibitor, single point]",–
O=S(=O)(Nc1ccccc1)c1ccc(Oc2ncc(C(F)(F)F)cc2Cl)cc1,"inconclusive: 50.1 µM [inhibitor, single point]",–
COc1ccc(S(=O)(=O)Nc2cccc(-c3ccc(N4CCCCCC4)nn3)c2)c(OC)c1,"inconclusive: 3.98 µM [inhibitor, partial curve]",–
Cc1cnc(NC(=O)CSc2nnc(COc3ccccc3)o2)s1,–,inactive: -11.2%
COc1ccccc1N(C)S(=O)(=O)c1ccc(Cl)c(C(=O)NC2=NCCS2)c1,–,inactive: -16.9%
O=C1c2ccccc2C(=O)N1CCCCn1c(=O)oc2ccccc21,"inconclusive: 50.1 µM [inhibitor, single point]",–
CC(=O)c1ccc(OCc2cc(C(=O)N3CCN4CCCC4C3)no2)cc1 (centres undefined),"inconclusive: 35.5 µM [inhibitor, single point]",–
O=C1CS/C(=C\[N+](=O)[O-])N1c1ccccc1,"inconclusive: 35.5 µM [inhibitor, partial curve]",–
CCOc1ccc(C(=O)Nc2cccc(-c3nc4cccnc4s3)c2C)cc1OCC,"inconclusive: 35.5 µM [inhibitor, partial curve]",–
CC(C)(C)NS(=O)(=O)c1ccc(NC(=S)NC(=O)C2CC2)cc1,"inconclusive: 31.6 µM [inhibitor, partial curve]",–
C/C(=N\NC(=O)CNc1cccc(Cl)c1C)C1CC1,"inconclusive: 15.8 µM [inhibitor, partial curve]",–
COC(=O)c1nc(NC(=O)c2cc(OC)c(OC)c(OC)c2)n[nH]1,–,inactive: 6.15%
O=C(CCC(=O)N/N=C/c1c[nH]c2ccccc12)NCc1ccccc1,–,inactive: -20%
O=C(Nc1ccc(F)cc1F)c1sccc1SCc1cccc(C(F)(F)F)c1,"inconclusive: 17.8 µM [inhibitor, partial curve]",–
CC(C)c1cc(C(=O)OCC(=O)NC(=O)NCc2ccco2)c(O)c(C(C)C)c1,"inconclusive: 5.62 µM [inhibitor, single point]",–
O=C(Nc1ccccc1Cl)c1cc2c(-c3ccccc3)nn(-c3ccccc3)c2s1,–,inactive: 2.53%
O=S(=O)(c1ccccc1)C1CON(Cc2ccccc2)C1c1ccccc1 (centres undefined),–,inactive: 110%
O=C(NC(=S)NCc1ccco1)c1ccc(Br)cc1,"inconclusive: 31.6 µM [inhibitor, partial curve]",–
CC1(C)Cc2c(sc3nc(-c4cccs4)n(N)c(=O)c23)CO1,–,inactive: -23.4%
C=C(C)[C@H]1CC=C(CO)CC1,"inconclusive: 31.6 µM [inhibitor, single point]",–

SMILES,Potency,"activity change, negative = displacement"
Cc1cc(NC(=O)/C=C/c2ccccc2)no1,–,inactive: -13.8%
Cc1ccc(S(=O)(=O)c2nnn3c2nc(N2CCOCC2)c2sccc23)cc1C,"inconclusive: 7.08 µM [inhibitor, partial curve]",–
Fc1cccc(CSc2ccc(-c3ccco3)nn2)c1,"inconclusive: 31.6 µM [inhibitor, partial curve]",–
CO[C@H]1C([C@@]2(C)O[C@@H]2CC=C(C)C)[C@]2(CC[C@H]1OC(=O)/C=C/C=C/C=C/C=C/C(=O)O)CO2 (some centres undefined),"inconclusive: 39.8 µM [inhibitor, single point]",–
CN(C)CCNC(=O)c1csc(Nc2cccc3ccccc23)n1,"inconclusive: 25.1 µM [inhibitor, partial curve]",–
O=C(CSc1nnc(-c2ccco2)o1)c1ccccc1Cl,"inconclusive: 25.1 µM [inhibitor, partial curve]",–
Cc1cc(C)cc(N(C(=O)CNC(=O)c2ccco2)C(C(=O)NC2CCCC2)c2ccncc2)c1 (centres undefined),–,inactive: -4.57%
CCc1c2c(nc3cccc(SC)c13)COC2,–,inactive: -0.464%
Cc1ccc(Nc2nc(COC(=O)COc3ccc(C=O)cc3)cs2)cc1,"inconclusive: 50.1 µM [inhibitor, single point]",–
Cc1c(C(=O)Oc2cccc3cccnc23)oc2ccccc12,"inconclusive: 28.2 µM [inhibitor, partial curve]",–
COc1cc(/C=C2/SC(=S)N(c3c(C)n(C)n(-c4ccccc4)c3=O)C2=O)ccc1O,"inconclusive: 35.5 µM [inhibitor, partial curve]",–
CC(=O)C(=Cc1cc(C)n(-c2ccccc2)c1C)C(C)=O,"inconclusive: 25.1 µM [inhibitor, partial curve]",–
Cc1ccc(COc2ccc(C(=O)NN)cc2)cc1,"inconclusive: 12.6 µM [inhibitor, partial curve]",–
Cc1sc(NC(=S)NC(=O)c2cccs2)nc1-c1ccc(CC(C)C)cc1,"inconclusive: 50.1 µM [inhibitor, single point]",–
OC(COc1ccc2c(c1)OCO2)CN1CCN(c2ccc(F)cc2)CC1 (centres undefined),–,inactive: -7.64%
CCOC(=O)CNC(=O)c1ccccc1,–,inactive: -13.3%
CC(C)N(Cc1nc(-c2ccccc2)no1)C(=O)C(C)(C)C,"inconclusive: 35.5 µM [inhibitor, single point]",–
Nc1ccc(Oc2ccc3c(c2)OCO3)cc1,"inconclusive: 25.1 µM [inhibitor, partial curve]",–
CCOC(=O)N1CCN(S(=O)(=O)c2ccc(C(=O)N(CCCN(C)C)c3nc4ccc(Cl)cc4s3)cc2)CC1,"inconclusive: 31.6 µM [inhibitor, partial curve]",–
CSc1cccc(NS(=O)(=O)c2ccc(F)cc2)c1,"inconclusive: 12.6 µM [inhibitor, partial curve]",–
Cc1cccc(-c2nnc(SCc3ccccc3)o2)c1,"inconclusive: 39.8 µM [inhibitor, partial curve]",–
Cc1cc(O)ccc1-c1cnc2ccccc2n1,"inconclusive: 44.7 µM [inhibitor, partial curve]",–
Cc1ccc(C(=O)CSc2nnc(COc3ccccc3)o2)cc1,"inconclusive: 25.1 µM [inhibitor, partial curve]",–

SMILES,Potency,"activity change, negative = displacement"
COc1cc(NC(=O)C2CCCCC2)c(OC)cc1NC(=O)CN1CCCCC1,"inconclusive: 39.8 µM [inhibitor, partial curve]",–
O=C(O)c1cc(N/N=C/c2ccc(OCc3ccccc3)cc2)ccc1Cl,"inconclusive: 39.8 µM [inhibitor, partial curve]",–
O=C(CCN1CCc2ccccc2C1)c1ccc2c(c1)OCCO2,"inconclusive: 35.5 µM [inhibitor, partial curve]",–
COc1ccc(C(=O)NCCn2ccc3ccccc32)cc1,–,inactive: -12.2%
CC(/C=C/c1ccccc1)=N\NC(N)=S,"inconclusive: 28.2 µM [inhibitor, single point]",–
Cc1ccc(OCCn2cc(/C=N/NC(=O)c3ccncc3)c3ccccc32)cc1,"inconclusive: 35.5 µM [inhibitor, single point]",–
O=C(OCc1nc2ccccc2s1)c1ccc(Br)s1,"inconclusive: 25.1 µM [inhibitor, partial curve]",–
CCC(c1nnc(SCC(=O)NC23CC4CC(CC(C4)C2)C3)o1)N(C)C (centres undefined),"inconclusive: 35.5 µM [inhibitor, partial curve]",–
CC(C)C(=O)Nc1ccc(Sc2ccc(F)cc2)cc1,"inconclusive: 8.91 µM [inhibitor, partial curve]",–
Cc1cc(N2CCOCC2)nc2ccc(NC(=O)CCC(=O)N3CCC(C)CC3)cc12,–,inactive: -1.83%
CCN(CCCNC(=O)c1nn(-c2ccc(OC)c(Cl)c2)c(=O)c2c1c1ccccc1n2C)c1ccccc1,–,inactive: 7.38%
COc1ccc(Br)cc1CN(C)C(=O)c1cc(Cl)c2c(c1)OCCO2,"inconclusive: 11.2 µM [inhibitor, partial curve]",–
COc1ccccc1-c1noc(CCCC(=O)N2CCOCC2)n1,–,inactive: -0.758%
CCC(=O)Nc1nonc1-c1nc2ccccc2n1CCC(C)C,"inconclusive: 5.62 µM [inhibitor, full curve, poor fit]",–
COc1ccc(OC)c(CNC(=O)CSc2c3c(nc4cc(Cl)ccc24)CCCC3)c1,"inconclusive: 28.2 µM [inhibitor, partial curve]",–
Clc1cccc(OCCN2CCOCC2)c1,"inconclusive: 35.5 µM [inhibitor, partial curve]",–
O=C(CN1CCCCCC1)N/N=C/c1ccc2ccccc2c1,"inconclusive: 17.8 µM [inhibitor, partial curve]",–
CCc1ccc(CN(Cc2cn[nH]c2-c2ccc(OC)cc2)C(=O)Nc2ccc(Br)cc2)cc1,"inconclusive: 35.5 µM [inhibitor, single point]",–
Oc1ccccc1C1CC(c2cccs2)=NC(c2cccc(Br)c2)N1 (centres undefined),"inconclusive: 25.1 µM [inhibitor, partial curve]",–
O=C(CCCN1C(=O)[C@H]2CC=CC[C@H]2C1=O)NCc1nc(-c2ccc(Cl)cc2)no1,"inconclusive: 44.7 µM [inhibitor, single point]",–
CCn1cc(-c2cc(C(=O)O)c3ccccc3n2)c(C)n1,–,inactive: -4.97%
COc1ccc(OCc2cc(C(=O)N(C)Cc3cc(C)no3)no2)c(Cl)c1,"inconclusive: 31.6 µM [inhibitor, partial curve]",–
O=C1NC2(CCN(Cc3ccccc3)CC2)Oc2ccccc21,–,inactive: -0.179%
